Results taken from PMC12272085, “PRMT1 oligomerization regulates RNA-binding protein cascade to promote pancreatic cancer” (Life Science Alliance, 2025).

B1: human PRMT1 ([…]) Y280A (enzyme)
chain: not shown
notes: human PRMT1, […], single mutant; also called Y280A single mutant PRMT1; source: E. coli BL21 (DE3), purified (Ni-NTA, Strep-Tactin, SEC); not shown: His6-Sumo, N-terminal, cleaved
B2: human PRMT1 ([…]) H296A (enzyme)
chain: not shown
notes: human PRMT1, […], single mutant; also called H296A single mutant PRMT1; source: E. coli BL21 (DE3), purified (Ni-NTA, Strep-Tactin, SEC); not shown: His6-Sumo, N-terminal, cleaved

Target: the molecule itself
Experiment: SEC; Superdex 200 Increase 10/300GL, 20 mM Tris pH 8.0, 150 mM NaCl, 2 mM DTT, 0.35 ml/min

Row | Protein | stoichiometry N
1 | B1 | 2
2 | B2 | 2
